# Results: the supplement of paper PMC8728848
# This is one part of the list.
# Tests used:
# Assay in all cases: glycan array binding signal (z-score within array); higher = stronger binding
# Details in all cases: glycan notation: IUPAC condensed, linker removed
# [1] = target: Gal(b1-4)GlcNAc(a1-6)Gal(b1-4)GlcNAc
# In short: (§1)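 Arrays were curated from the Consortium for Functional Glycomics database, 3228 in total, and kept only where the protein sequence was available. Binding is expressed as a within-array Z-score. This score was averaged across arrays of the same protein sequence at different concentrations or buffers and across linkers, and negative values can be read as non-binding.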
# [2] = target: Gal(b1-4)GlcNAc(b1-2)Man(a1-3)Man(b1-4)GlcNAc(b1-4)GlcNAc
# In short: as §1
# [3] = target: Gal(b1-4)GlcNAc(b1-2)Man(a1-3)[Gal(b1-4)GlcNAc(b1-2)Man(a1-6)]Man(b1-4)GlcNAc(b1-4)GlcNAc
# In short: as §1
# [4] = target: Gal(b1-4)GlcNAc(b1-2)Man(a1-3)[Gal(b1-4)GlcNAc(b1-2)Man(a1-6)]Man(b1-4)GlcNAc(b1-4)[Fuc(a1-6)]GlcNAc
# In short: as §1
# [5] = target: Gal(b1-4)GlcNAc(b1-2)Man(a1-3)[GlcNAc(b1-2)Man(a1-6)]Man(b1-4)GlcNAc(b1-4)GlcNAc
# In short: as §1
# [6] = target: Gal(b1-4)GlcNAc(b1-2)Man(a1-3)[Man(a1-6)]Man(b1-4)GlcNAc(b1-4)GlcNAc
# In short: as §1
# [7] = target: Gal(b1-4)GlcNAc(b1-2)Man(a1-6)Man(b1-4)GlcNAc(b1-4)GlcNAc
# In short: as §1
# [8] = target: Gal(b1-4)GlcNAc(b1-2)Man(a1-6)[GlcNAc(b1-2)Man(a1-3)]Man(b1-4)GlcNAc(b1-4)GlcNAc
# In short: as §1
# [9] = target: Gal(b1-4)GlcNAc(b1-2)Man(a1-6)[Man(a1-3)]Man(b1-4)GlcNAc(b1-4)GlcNAc
# In short: as §1
# [10] = target: Gal(b1-4)GlcNAc(b1-2)[Gal(b1-4)GlcNAc(b1-4)]Man(a1-3)[Gal(b1-4)GlcNAc(b1-2)Man(a1-6)]Man(b1-4)GlcNAc(b1-4)GlcNAc
# In short: as §1
# [11] = target: Gal(b1-4)GlcNAc(b1-2)[Gal(b1-4)GlcNAc(b1-4)]Man(a1-3)[Gal(b1-4)GlcNAc(b1-2)[Gal(b1-4)GlcNAc(b1-6)]Man(a1-6)]Man(b1-4)GlcNAc(b1-4)GlcNAc
# In short: as §1
# [12] = target: Gal(b1-4)GlcNAc(b1-3)Gal(b1-3)GlcNAc
# In short: as §1
# [13] = target: Gal(b1-4)GlcNAc(b1-3)Gal(b1-4)Glc
# In short: as §1
# [14] = target: Gal(b1-4)GlcNAc(b1-3)Gal(b1-4)GlcNAc
# In short: as §1
# [15] = target: Gal(b1-4)GlcNAc(b1-3)Gal(b1-4)GlcNAc(b1-3)Gal(b1-4)GlcNAc
# In short: as §1
# [16] = target: Gal(b1-4)GlcNAc(b1-3)Gal(b1-4)[Fuc(a1-3)]GlcNAc(b1-3)Gal(b1-4)[Fuc(a1-3)]GlcNAc
# In short: as §1
# [17] = target: Gal(b1-4)GlcNAc(b1-3)GalNAc
# In short: as §1
# [18] = target: Gal(b1-4)GlcNAc(b1-3)[Gal(b1-4)GlcNAc(b1-6)]Gal(b1-4)GlcNAc
# In short: as §1
# [19] = target: Gal(b1-4)GlcNAc(b1-3)[Gal(b1-4)GlcNAc(b1-6)]GalNAc
# In short: as §1
# [20] = target: Gal(b1-4)GlcNAc(b1-3)[GlcNAc(b1-6)]Gal(b1-4)GlcNAc
# In short: as §1
# [21] = target: Gal(b1-4)GlcNAc(b1-6)Gal(b1-4)GlcNAc
# In short: as §1
# [22] = target: Gal(b1-4)GlcNAc(b1-6)GalNAc
# In short: as §1
# [23] = target: Gal(b1-4)GlcNAc(b1-6)[Gal(b1-3)]GalNAc
# In short: as §1
# [24] = target: Gal3S(b1-3)GalNAc
# In short: as §1
# [25] = target: Gal3S(b1-3)GlcNAc
# In short: as §1
# [26] = target: Gal3S(b1-3)[Fuc(a1-4)]GlcNAc
# In short: as §1
# [27] = target: Gal3S(b1-4)Glc
# In short: as §1
# [28] = target: Gal3S(b1-4)Glc6S
# In short: as §1
# [29] = target: Gal3S(b1-4)GlcNAc
# In short: as §1
# [30] = target: Gal3S(b1-4)GlcNAc6S
# In short: as §1
# [31] = target: Gal3S(b1-4)[Fuc(a1-3)]Glc
# In short: as §1
# [32] = target: Gal3S(b1-4)[Fuc(a1-3)]Glc6S
# In short: as §1
# [33] = target: Gal3S4S(b1-4)GlcNAc
# In short: as §1
# [34] = target: Gal3S6S(b1-4)GlcNAc
# In short: as §1
# [35] = target: Gal3S6S(b1-4)GlcNAc6S
# In short: as §1
# [36] = target: Gal4S(b1-4)GlcNAc
# In short: as §1
# [37] = target: Gal4S6S(b1-4)GlcNAc
# In short: as §1
# [38] = target: Gal6S(b1-4)Glc
# In short: as §1
# [39] = target: Gal6S(b1-4)Glc6S
# In short: as §1
# [40] = target: Gal6S(b1-4)GlcNAc
# In short: as §1
# [41] = target: Gal6S(b1-4)GlcNAc6S
# In short: as §1
# [42] = target: GalNAc(a1-3)Gal
# In short: as §1
# [43] = target: GalNAc(a1-3)GalNAc
# In short: as §1
# [44] = target: GalNAc(a1-3)GalNAc(a1-3)Gal(a1-4)Gal(b1-4)GlcNAc
# In short: as §1
# [45] = target: GalNAc(b1-3)Gal
# In short: as §1
binder,measurement,setting,value
Gal 1 (Canis lupus) (protein) MACGLVASNLSLKPGQCLRVQCEVVPEAKSFVLNLGKDGDNLCLHFNPRFEAHGDVNTIVCNSKDGGAWGEELRESAFPFQPGTVTEVCISFDQADLTIKLPDGYTFKFPNRLNLEAISYLAADGDMKIKCLAFD,glycan array binding signal (z-score),[1],2.97
same,glycan array binding signal (z-score),[2],1.75
same,glycan array binding signal (z-score),[3],2.48
same,glycan array binding signal (z-score),[4],1.64
same,glycan array binding signal (z-score),[5],1.24
same,glycan array binding signal (z-score),[6],1.45
same,glycan array binding signal (z-score),[7],0.574
same,glycan array binding signal (z-score),[8],0.478
same,glycan array binding signal (z-score),[9],0.159
same,glycan array binding signal (z-score),[10],5.5
same,glycan array binding signal (z-score),[11],6.78
same,glycan array binding signal (z-score),[12],0.232
same,glycan array binding signal (z-score),[13],0.621
same,glycan array binding signal (z-score),[14],1.18
same,glycan array binding signal (z-score),[15],1.8
same,glycan array binding signal (z-score),[16],0.541
same,glycan array binding signal (z-score),[17],-0.018
same,glycan array binding signal (z-score),[18],1.75
same,glycan array binding signal (z-score),[19],1.94
same,glycan array binding signal (z-score),[20],1.3
same,glycan array binding signal (z-score),[21],0.041
same,glycan array binding signal (z-score),[22],-0.121
same,glycan array binding signal (z-score),[23],-0.016
same,glycan array binding signal (z-score),[24],-0.327
same,glycan array binding signal (z-score),[25],3.33
same,glycan array binding signal (z-score),[26],-0.317
same,glycan array binding signal (z-score),[27],0.38
same,glycan array binding signal (z-score),[28],1.75
same,glycan array binding signal (z-score),[29],2.51
same,glycan array binding signal (z-score),[30],4.69
same,glycan array binding signal (z-score),[31],-0.308
same,glycan array binding signal (z-score),[32],-0.286
same,glycan array binding signal (z-score),[33],-0.179
same,glycan array binding signal (z-score),[34],-0.317
same,glycan array binding signal (z-score),[35],-0.319
same,glycan array binding signal (z-score),[36],-0.322
same,glycan array binding signal (z-score),[37],-0.3
same,glycan array binding signal (z-score),[38],-0.327
same,glycan array binding signal (z-score),[39],-0.312
same,glycan array binding signal (z-score),[40],-0.327
same,glycan array binding signal (z-score),[41],-0.256
same,glycan array binding signal (z-score),[42],-0.325
same,glycan array binding signal (z-score),[43],-0.323
same,glycan array binding signal (z-score),[44],-0.325
same,glycan array binding signal (z-score),[45],-0.334
